The densities may have been worked out from excess volumes.
Experiment: xn = mol fraction of the nth substance listed
Details: 101 kPa

CCCC[P+](CC)(CCCC)CCCC.CCOP(=O)([O-])OCC + O
Details | mass density [kg/m3]
298.15 K, x1 = 0.007 | 1005.4
298.15 K, x1 = 0.0141 | 1013.1
298.15 K, x1 = 0.0208 | 1018.5
298.15 K, x1 = 0.028 | 1022
298.15 K, x1 = 0.0392 | 1024.7
298.15 K, x1 = 0.048 | 1025.7
298.15 K, x1 = 0.0564 | 1026
298.15 K, x1 = 0.0905 | 1025
298.15 K, x1 = 0.2038 | 1019.6
298.15 K, x1 = 0.3024 | 1016.4
298.15 K, x1 = 0.3979 | 1014.3
298.15 K, x1 = 0.5175 | 1012.4
298.15 K, x1 = 0.6063 | 1011.3
298.15 K, x1 = 0.6943 | 1010.5
298.15 K, x1 = 0.7959 | 1009.5
298.15 K, x1 = 0.9 | 1008.9
298.15 K, x1 = 1 | 1008.4
303.15 K, x1 = 0.0141 | 1010.6
303.15 K, x1 = 0.0208 | 1015.4
303.15 K, x1 = 0.028 | 1018.7
303.15 K, x1 = 0.035 | 1020.6
303.15 K, x1 = 0.0392 | 1021.2
303.15 K, x1 = 0.048 | 1022
303.15 K, x1 = 0.0564 | 1022.4
303.15 K, x1 = 0.068 | 1022.2
303.15 K, x1 = 0.0794 | 1021.9
303.15 K, x1 = 0.0905 | 1021.3
303.15 K, x1 = 0.1023 | 1020.7
303.15 K, x1 = 0.1174 | 1020
303.15 K, x1 = 0.2038 | 1016
303.15 K, x1 = 0.3024 | 1012.9
303.15 K, x1 = 0.3979 | 1010.8
303.15 K, x1 = 0.5175 | 1009
303.15 K, x1 = 0.6063 | 1007.9
303.15 K, x1 = 0.6943 | 1007.1
303.15 K, x1 = 0.9 | 1005.6
303.15 K, x1 = 1 | 1005.1
308.15 K, x1 = 0.007 | 1001.4
308.15 K, x1 = 0.0141 | 1007.9
308.15 K, x1 = 0.0208 | 1012.3
308.15 K, x1 = 0.028 | 1015.2
308.15 K, x1 = 0.035 | 1017
308.15 K, x1 = 0.048 | 1018.3
308.15 K, x1 = 0.0564 | 1018.6
308.15 K, x1 = 0.0905 | 1017.6
308.15 K, x1 = 0.1023 | 1017
308.15 K, x1 = 0.1174 | 1016.3
308.15 K, x1 = 0.3024 | 1009.3
308.15 K, x1 = 0.3979 | 1007.3
308.15 K, x1 = 0.5175 | 1005.5
308.15 K, x1 = 0.6943 | 1003.7
308.15 K, x1 = 0.7959 | 1002.9
308.15 K, x1 = 0.9 | 1002.3
313.15 K, x1 = 0.007 | 999.1
313.15 K, x1 = 0.0141 | 1005.1
313.15 K, x1 = 0.0208 | 1009.1
313.15 K, x1 = 0.035 | 1013.4
313.15 K, x1 = 0.0392 | 1013.8
313.15 K, x1 = 0.048 | 1014.6
313.15 K, x1 = 0.0794 | 1014.4
313.15 K, x1 = 0.0905 | 1013.8
313.15 K, x1 = 0.1023 | 1013.3
313.15 K, x1 = 0.1174 | 1012.5
313.15 K, x1 = 0.2038 | 1008.8
313.15 K, x1 = 0.3024 | 1005.8
313.15 K, x1 = 0.5175 | 1002
313.15 K, x1 = 0.6943 | 1000.3
313.15 K, x1 = 0.7959 | 999.5
313.15 K, x1 = 1 | 998.6
318.15 K, x1 = 0.007 | 996.7
318.15 K, x1 = 0.0208 | 1005.8
318.15 K, x1 = 0.028 | 1008.2
318.15 K, x1 = 0.035 | 1009.7
318.15 K, x1 = 0.0392 | 1010.1
318.15 K, x1 = 0.048 | 1010.8
318.15 K, x1 = 0.0794 | 1010.6
318.15 K, x1 = 0.0905 | 1010
318.15 K, x1 = 0.1023 | 1009.5
318.15 K, x1 = 0.1174 | 1008.8
318.15 K, x1 = 0.2038 | 1005.1
318.15 K, x1 = 0.3024 | 1002.2
318.15 K, x1 = 0.3979 | 1000.2
318.15 K, x1 = 0.5175 | 998.6
318.15 K, x1 = 0.6063 | 997.6
318.15 K, x1 = 0.6943 | 996.9
318.15 K, x1 = 0.9 | 995.7
323.15 K, x1 = 0.007 | 994.1
323.15 K, x1 = 0.0141 | 999.1
323.15 K, x1 = 0.0208 | 1002.4
323.15 K, x1 = 0.0392 | 1006.4
323.15 K, x1 = 0.068 | 1007.1
323.15 K, x1 = 0.0794 | 1006.8
323.15 K, x1 = 0.0905 | 1006.2
323.15 K, x1 = 0.1023 | 1005.7
323.15 K, x1 = 0.1174 | 1005
323.15 K, x1 = 0.2038 | 1001.5
323.15 K, x1 = 0.3024 | 998.7
323.15 K, x1 = 0.3979 | 996.7
323.15 K, x1 = 0.5175 | 995.1
323.15 K, x1 = 0.6063 | 994.2
323.15 K, x1 = 0.6943 | 993.5
323.15 K, x1 = 0.7959 | 992.8
323.15 K, x1 = 0.9 | 992.3
323.15 K, x1 = 1 | 992
328.15 K, x1 = 0.007 | 991.4
328.15 K, x1 = 0.0141 | 996
328.15 K, x1 = 0.0208 | 999
328.15 K, x1 = 0.028 | 1001
328.15 K, x1 = 0.035 | 1002.2
328.15 K, x1 = 0.0392 | 1002.6
328.15 K, x1 = 0.048 | 1003.1
328.15 K, x1 = 0.0564 | 1003.4
328.15 K, x1 = 0.068 | 1003.2
328.15 K, x1 = 0.0794 | 1002.9
328.15 K, x1 = 0.0905 | 1002.4
328.15 K, x1 = 0.1174 | 1001.2
328.15 K, x1 = 0.2038 | 997.8
328.15 K, x1 = 0.3979 | 993.2
328.15 K, x1 = 0.5175 | 991.6
328.15 K, x1 = 0.6063 | 990.8
328.15 K, x1 = 0.7959 | 989.4
328.15 K, x1 = 1 | 988.7
333.15 K, x1 = 0.0141 | 992.8
333.15 K, x1 = 0.0208 | 995.5
333.15 K, x1 = 0.028 | 997.3
333.15 K, x1 = 0.035 | 998.4
333.15 K, x1 = 0.0392 | 998.8
333.15 K, x1 = 0.048 | 999.3
333.15 K, x1 = 0.0564 | 999.5
333.15 K, x1 = 0.068 | 999.3
333.15 K, x1 = 0.0794 | 999
333.15 K, x1 = 0.0905 | 998.5
333.15 K, x1 = 0.1023 | 998
333.15 K, x1 = 0.1174 | 997.4
333.15 K, x1 = 0.2038 | 994.2
333.15 K, x1 = 0.3979 | 989.7
333.15 K, x1 = 0.5175 | 988.2
333.15 K, x1 = 0.6943 | 986.7
333.15 K, x1 = 0.9 | 985.7
333.15 K, x1 = 1 | 985.4
338.15 K, x1 = 0.007 | 985.5
338.15 K, x1 = 0.0141 | 989.4
338.15 K, x1 = 0.0208 | 991.9
338.15 K, x1 = 0.028 | 993.6
338.15 K, x1 = 0.048 | 995.4
338.15 K, x1 = 0.0794 | 995.1
338.15 K, x1 = 0.0905 | 994.6
338.15 K, x1 = 0.1023 | 994.1
338.15 K, x1 = 0.1174 | 993.6
338.15 K, x1 = 0.2038 | 990.5
338.15 K, x1 = 0.3024 | 988
338.15 K, x1 = 0.3979 | 986.2
338.15 K, x1 = 0.6063 | 983.9
338.15 K, x1 = 0.6943 | 983.3
338.15 K, x1 = 0.7959 | 982.7
338.15 K, x1 = 0.9 | 982.4
338.15 K, x1 = 1 | 982.1
343.15 K, x1 = 0.007 | 982.4
343.15 K, x1 = 0.0208 | 988.3
343.15 K, x1 = 0.028 | 989.8
343.15 K, x1 = 0.035 | 990.7
343.15 K, x1 = 0.0392 | 991
343.15 K, x1 = 0.048 | 991.4
343.15 K, x1 = 0.068 | 991.5
343.15 K, x1 = 0.0794 | 991.2
343.15 K, x1 = 0.0905 | 990.7
343.15 K, x1 = 0.1023 | 990.2
343.15 K, x1 = 0.1174 | 989.7
343.15 K, x1 = 0.2038 | 986.8
343.15 K, x1 = 0.3024 | 984.4
343.15 K, x1 = 0.3979 | 982.7
343.15 K, x1 = 0.5175 | 981.3
343.15 K, x1 = 0.7959 | 979.3
343.15 K, x1 = 0.9 | 979
348.15 K, x1 = 0.007 | 979.2
348.15 K, x1 = 0.0141 | 982.5
348.15 K, x1 = 0.0208 | 984.5
348.15 K, x1 = 0.028 | 986
348.15 K, x1 = 0.035 | 986.8
348.15 K, x1 = 0.0392 | 987
348.15 K, x1 = 0.048 | 987.4
348.15 K, x1 = 0.0564 | 987.6
348.15 K, x1 = 0.068 | 987.5
348.15 K, x1 = 0.0794 | 987.2
348.15 K, x1 = 0.0905 | 986.8
348.15 K, x1 = 0.1023 | 986.3
348.15 K, x1 = 0.1174 | 985.8
348.15 K, x1 = 0.2038 | 983.1
348.15 K, x1 = 0.3024 | 980.8
348.15 K, x1 = 0.3979 | 979.2
348.15 K, x1 = 0.5175 | 977.9
348.15 K, x1 = 0.6063 | 977.1
348.15 K, x1 = 0.9 | 975.8
348.15 K, x1 = 1 | 975.5

Reference: a compilation of properties of binary mixtures (doi:10.1016/j.molliq.2017.11.011)
